# Assay results published in the supplement of paper PMC4604168 (melanoma cell lines).
# The list shows a part of the results. Single values are uncertain, as repeats are few or missing.
# Test system: A375
# Experiment: cell count relative to DMSO control; melanoma cells; higher = more viable cells
# Settings: library dose: low library concentration; 72 h
# 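Further: cell number obtained by counting DAPI-stained nuclei in high-throughput microscope images with image analysis software, screen run in 1,536-well plates.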
row,SMILES,cell count
1,"O=C(/C=C/c1cccnc1)NCCCCC1CCN(C(=O)c2ccccc2)CC1 + O=C(O)[C@@H]1[O][Sb](=[O])([O][Sb]2(=[O])[O][C@H]([C@H](O)CO)[C@H](O)[C@H](C(=O)O)[O]2)[O][C@H]([C@H](O)CO)[C@@H]1O [stibogluconate] (first compound 0.01 µM, partner dose 2 µM)",97.6%
2,"Cc1ccc(Nc2nccc(N(C)c3ccc4c(C)n(C)nc4c3)n2)cc1S(N)(=O)=O [Pazopanib] + OCCn1cc(-c2cnc3nnn(Cc4ccc5ncccc5c4)c3n2)cn1 [PF04217903] (first compound 0.4 µM, partner dose 1 µM)",108%
3,"Cc1ccc(Nc2nccc(N(C)c3ccc4c(C)n(C)nc4c3)n2)cc1S(N)(=O)=O [Pazopanib] + NCC(=O)Nc1ccc(-n2nc(C(F)(F)F)cc2-c2ccc3c(ccc4ccccc43)c2)cc1 [OSU03012] (first compound 0.4 µM, partner dose 1 µM)",14.5%
4,"CC1(C)CCC(c2ccc(Cl)cc2)=C(CN2CCN(c3ccc(C(=O)NS(=O)(=O)c4ccc(N[C@H](CCN5CCOCC5)CSc5ccccc5)c(S(=O)(=O)C(F)(F)F)c4)cc3)CC2)C1 + OCc1c[nH]c2ccccc12 [Indole-3-carbinol] (first compound 0.4 µM, partner dose 0.8 µM)",79%
5,"O=C(/C=C/c1cccnc1)NCCCCC1CCN(C(=O)c2ccccc2)CC1 + C[C@@H](N)c1ccc(C(=O)Nc2ccnc3[nH]ccc23)cc1 [RKI983] (first compound 0.01 µM, partner dose 0.4 µM)",98%
